# Assay results from article PMC12040169 (PLOS Biology, 2025).
# This is one part of the list.
# System: T1, C. trachomatis L2/434/Bu expressing GFP (CTL2-GFP)
# T1 construct: L2/434/Bu GFP intracellular growth in HeLa cells
# Parameters: species or system HeLa; C. trachomatis total inclusion area by high-content imaging, normalised to DMSO
# Conditions: total inclusion area; 28.5 h, 10 µM; inhibitor
# How it was run: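 Bulk GFP and resorufin signals were read first. Wells were then fixed, stained with Hoechst and imaged to detect GFP inclusions and host nuclei. MICs followed the previously described calculation.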
row,Compound,% of control remaining
1,CCN1CCN(C(=O)Cc2ccc(OC)cc2)C(Cc2ccc(-c3ccncc3)cc2)C1=O (centres unmarked) [CBK285804],94.6249
2,CCC(C)(C)c1ccc(S(=O)(=O)N2CCN(CCCOC3CCCCO3)CC2)cc1 (centres unmarked) [CBK063135],90.8759
3,COc1ccc(Cn2c(=O)n(C(=O)c3cccc(S(C)(=O)=O)c3)c3ccccc32)cc1 [CBK106547],93.0905
4,CCC(CC)C(=O)Nc1ccc([C@@H](O)[C@H]2COCC(=O)N2Cc2ccc(OC)cc2)cc1 [CBK289677],96.6996
5,Cc1nnc2sc(-c3cccc(NC(=S)NC(=O)c4cc5ccccc5o4)c3)nn12 [CBK267282],105.586
6,CCC(CO)Nc1cncc(-c2ccc(C(N)=O)cc2)n1 (centres unmarked) [CBK065577],92.1872
7,Fc1ccc(-c2cncc(NCc3ccco3)n2)c(F)c1 [CBK065834],128.041
8,CC(C)N1CCC[C@H]1c1nc(-c2ccc(-c3cncnc3)nc2)no1 [CBK288892],95.4469
9,Cc1ccc(NC(=O)c2cnc3n(c2=O)CCS3)cc1 [CBK287376],93.7142
10,Cc1ccc(/C=N/n2c(S)nnc2COc2ccccc2)o1 [CBK265244],96.9923
11,CC1CCCCC1NC(=O)Cn1c(=O)n(C(C)C)c2ncccc21 (centres unmarked) [CBK283697],85.2356
12,O=C1N(CN2CCN(c3cccc(C(F)(F)F)c3)CC2)c2ccccc2C12OCCCO2 [CBK294461],94.6669
13,CC1(c2cc(F)ccc2F)NC(=O)N(c2ccncc2)C1=O (centres unmarked) [CBK291253],119.071
14,Nc1nonc1NC(=O)c1ccccc1Cl [CBK019040],122.683
15,O=C(NC1CCCCC1)c1cc(Br)cnc1NCc1cccnc1 [CBK076439],95.3933
16,O=C1C2CCCCN2C(=O)N1c1cccnc1 (centres unmarked) [CBK162359],73.0003
17,Nc1nccnc1C(=O)Oc1ccccc1 [CBK090311],131.62
18,CCCNC(=O)C[C@@H]1CCN(S(=O)(=O)c2c(C)noc2C)C[C@@H]1CC [CBK288780],102.054
19,Cn1cc(C2CNCCN2C(=O)c2csc3ccccc23)cn1 (centres unmarked) [CBK304324C],37.9988
20,COc1ccc(OC(=O)c2ccc3ncccc3c2)cc1 [CBK083572],130.304
21,CC(C)Oc1cc(Br)cc(C(=O)N2CCC(C(=O)O)C2)c1 (centres unmarked) [CBK304268C],84.0427
22,Cc1onc(-c2c(Cl)cccc2Cl)c1C(=O)N(C)C [CBK160437],112.647
23,CCN(NC(=O)c1cc2cccc(OC)c2o1)c1ccc(C)cc1 [CBK161484],102.681
